PMC3882260
No constants are given. Whether binding was seen depends on the method and setting. Some results given as binding are weak or reduced against the parent protein; the word gives no strength. For some of these results: Where a sequence is shown, tags or fusion partners need not be part of it.

Sequences of proteins named here, by UniProt entry; tags and fusion partners are left off. A change or cut given only in a name is not applied to a line headed by its entry. A line that says so, or that is headed by a name, gives the form on record, which may keep a tag or linker. Residues count along the entry.
UniProt P43146: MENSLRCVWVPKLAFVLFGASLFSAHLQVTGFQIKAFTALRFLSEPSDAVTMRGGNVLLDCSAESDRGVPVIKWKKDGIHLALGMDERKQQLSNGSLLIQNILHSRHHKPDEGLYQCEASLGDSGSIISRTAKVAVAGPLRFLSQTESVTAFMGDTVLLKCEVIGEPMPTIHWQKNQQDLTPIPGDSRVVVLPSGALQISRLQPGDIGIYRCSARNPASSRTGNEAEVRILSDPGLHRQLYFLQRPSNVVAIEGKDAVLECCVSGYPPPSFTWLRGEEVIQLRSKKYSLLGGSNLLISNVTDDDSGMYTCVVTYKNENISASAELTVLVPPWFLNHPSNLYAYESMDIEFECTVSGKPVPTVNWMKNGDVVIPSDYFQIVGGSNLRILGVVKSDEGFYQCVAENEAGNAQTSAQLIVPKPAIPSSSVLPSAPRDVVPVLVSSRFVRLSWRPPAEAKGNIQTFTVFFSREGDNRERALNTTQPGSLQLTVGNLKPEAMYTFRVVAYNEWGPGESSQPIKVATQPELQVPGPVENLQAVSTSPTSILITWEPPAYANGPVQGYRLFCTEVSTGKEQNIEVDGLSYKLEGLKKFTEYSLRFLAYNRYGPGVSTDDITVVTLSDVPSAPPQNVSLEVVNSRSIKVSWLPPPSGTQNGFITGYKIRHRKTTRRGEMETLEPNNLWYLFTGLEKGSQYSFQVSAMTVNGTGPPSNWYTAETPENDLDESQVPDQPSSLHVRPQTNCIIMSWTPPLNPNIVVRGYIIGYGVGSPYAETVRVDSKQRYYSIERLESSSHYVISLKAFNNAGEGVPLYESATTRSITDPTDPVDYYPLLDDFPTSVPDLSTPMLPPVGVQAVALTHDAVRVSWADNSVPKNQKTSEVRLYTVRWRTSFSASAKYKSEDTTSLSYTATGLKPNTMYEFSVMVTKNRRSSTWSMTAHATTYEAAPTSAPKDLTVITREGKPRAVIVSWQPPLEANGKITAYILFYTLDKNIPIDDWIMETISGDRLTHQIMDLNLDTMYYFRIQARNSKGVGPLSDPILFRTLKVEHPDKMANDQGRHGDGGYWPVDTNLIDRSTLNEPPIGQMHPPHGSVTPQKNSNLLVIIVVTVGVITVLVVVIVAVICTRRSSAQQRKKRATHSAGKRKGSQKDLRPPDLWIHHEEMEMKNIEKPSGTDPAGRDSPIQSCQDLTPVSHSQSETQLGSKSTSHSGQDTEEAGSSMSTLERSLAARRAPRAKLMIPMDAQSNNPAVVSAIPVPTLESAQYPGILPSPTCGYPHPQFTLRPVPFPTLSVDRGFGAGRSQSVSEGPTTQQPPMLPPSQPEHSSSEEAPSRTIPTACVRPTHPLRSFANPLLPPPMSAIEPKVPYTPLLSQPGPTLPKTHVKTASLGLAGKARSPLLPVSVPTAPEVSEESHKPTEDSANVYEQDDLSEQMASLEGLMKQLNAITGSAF
DCC (cDNA transfected into COS-7 cells for the AP binding assay): residues 26-1447 of P43146
Flag-DCC full-length (H26-I1442): residues 26-1442 of P43146
extracellular domain of human DCC (M1-N1097) with a C-terminal Fc tag: residues 26-1097 of P43146
UniProt Q9NTU7, residues 28-201: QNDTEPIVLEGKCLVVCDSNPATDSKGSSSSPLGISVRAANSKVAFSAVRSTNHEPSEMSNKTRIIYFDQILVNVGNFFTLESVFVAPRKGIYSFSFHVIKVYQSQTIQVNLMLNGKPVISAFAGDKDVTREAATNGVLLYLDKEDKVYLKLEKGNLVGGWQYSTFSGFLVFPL
UniProt P23435, residues 22-193: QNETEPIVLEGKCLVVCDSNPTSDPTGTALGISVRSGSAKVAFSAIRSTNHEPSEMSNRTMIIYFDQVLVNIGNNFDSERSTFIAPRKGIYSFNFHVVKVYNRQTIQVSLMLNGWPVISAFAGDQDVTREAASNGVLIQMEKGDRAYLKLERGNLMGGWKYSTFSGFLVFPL
UniProt Q6UW01, residues 33-205: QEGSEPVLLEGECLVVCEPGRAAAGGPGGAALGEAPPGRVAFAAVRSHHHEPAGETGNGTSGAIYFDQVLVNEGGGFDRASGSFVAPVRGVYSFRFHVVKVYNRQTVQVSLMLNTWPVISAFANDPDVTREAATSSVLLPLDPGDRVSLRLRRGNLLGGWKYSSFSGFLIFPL
UniProt O95185, residues 41-380: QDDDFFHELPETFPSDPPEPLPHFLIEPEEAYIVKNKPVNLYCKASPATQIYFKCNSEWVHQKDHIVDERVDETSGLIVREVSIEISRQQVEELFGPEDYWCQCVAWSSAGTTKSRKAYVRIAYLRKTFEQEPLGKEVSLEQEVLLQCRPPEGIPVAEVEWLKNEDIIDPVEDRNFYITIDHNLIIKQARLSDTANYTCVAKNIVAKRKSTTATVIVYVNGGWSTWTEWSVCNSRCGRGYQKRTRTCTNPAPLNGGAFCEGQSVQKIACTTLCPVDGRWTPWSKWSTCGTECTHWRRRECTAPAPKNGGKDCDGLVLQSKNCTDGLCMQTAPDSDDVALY
UniProt Q8IUK8, residues 52-224: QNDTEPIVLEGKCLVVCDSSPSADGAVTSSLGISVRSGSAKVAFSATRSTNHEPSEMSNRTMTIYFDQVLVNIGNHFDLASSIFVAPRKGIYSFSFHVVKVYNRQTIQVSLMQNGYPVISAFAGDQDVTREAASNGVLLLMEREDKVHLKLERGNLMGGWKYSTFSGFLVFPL

Assays:
[1] = target: Flag-DCC full-length (H26-I1442) (human) (UniProt P43146); test: radioligand binding; competition: fixed concentration of 125I CBLN4-Fc with increasing unlabeled gD-Netrin-1 on DCC expressing HEK293T cells; 2 h, room temperature; only the binder purified
[2] = target: Flag-DCC full-length (H26-I1442) (human) (UniProt P43146); test: radioligand binding; blocking: HEK293T cells expressing DCC or control cells pre-blocked with unlabeled gD-Netrin-1 (1 µM) or CBLN4-Fc (2 µM) for 1.5 h on ice, then 125I CBLN4-Fc (300 pM) or 125I gD-Netrin-1 (52 pM) for 1 h at 4°C; only the binder purified
[3] = target: Flag-DCC full-length (H26-I1442) (human) (UniProt P43146); test: flow cytometry on cells; HEK293T cells transiently transfected with Flag-tagged DCC against non-transfected cells; proteins at 10 µg/ml for 30 min, PBS with 2% FBS, 4°C; detected with anti-human IgG or anti-gD and labeled secondary antibody; only the binder purified
[4] = target: T1, extracellular region of Robo3 fused to Fc (UniProt Q96MS0); test: SPR; Biacore 3000, 25°C, CM5 chip, DCC-Fc or Robo3-Fc amine-coupled; CBLN family members injected at 10 µg/ml for 3 min, 30 µl/min, HBS-P (0.01 M HEPES pH 7.4, 0.15 M NaCl, 0.005% P20); both purified
T1 sequence: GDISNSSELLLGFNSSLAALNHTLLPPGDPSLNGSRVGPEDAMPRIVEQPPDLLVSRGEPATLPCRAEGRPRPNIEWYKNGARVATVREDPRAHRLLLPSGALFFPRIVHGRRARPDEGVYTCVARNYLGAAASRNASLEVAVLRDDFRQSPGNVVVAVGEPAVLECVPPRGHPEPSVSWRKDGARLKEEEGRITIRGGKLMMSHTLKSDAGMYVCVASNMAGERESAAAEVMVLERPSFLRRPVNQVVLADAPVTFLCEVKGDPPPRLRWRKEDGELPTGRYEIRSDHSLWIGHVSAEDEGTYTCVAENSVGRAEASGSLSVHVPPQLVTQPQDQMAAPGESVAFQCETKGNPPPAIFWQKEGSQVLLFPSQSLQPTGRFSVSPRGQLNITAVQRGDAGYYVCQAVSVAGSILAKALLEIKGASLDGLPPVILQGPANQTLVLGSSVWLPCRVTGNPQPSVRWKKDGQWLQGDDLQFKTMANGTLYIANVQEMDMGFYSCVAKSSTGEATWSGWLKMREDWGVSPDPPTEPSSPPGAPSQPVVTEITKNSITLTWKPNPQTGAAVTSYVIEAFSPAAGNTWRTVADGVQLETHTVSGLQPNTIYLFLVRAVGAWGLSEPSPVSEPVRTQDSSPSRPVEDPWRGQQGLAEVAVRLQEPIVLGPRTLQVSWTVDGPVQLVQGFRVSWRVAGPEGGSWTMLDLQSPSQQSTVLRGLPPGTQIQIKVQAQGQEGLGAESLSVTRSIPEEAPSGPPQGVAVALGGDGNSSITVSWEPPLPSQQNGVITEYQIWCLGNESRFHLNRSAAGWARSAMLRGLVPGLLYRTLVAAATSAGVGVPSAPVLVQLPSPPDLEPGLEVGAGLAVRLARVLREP

[5] = target: extracellular domain of human DCC (M1-N1097) with a C-terminal Fc tag (human) (UniProt P43146); test: as above
[6] = target: DCC (cDNA transfected into COS-7 cells for the AP binding assay) (human) (UniProt P43146); test: alkaline phosphatase (AP) fusion protein binding to transfected cells; COS-7 cells transfected with DCC or NgR; 20 nM AP, CBLN4-AP or Nogo 66-AP from conditioned media, 90 min, room temperature, binding buffer with 2 µg/ml heparin; NBT/BCIP development
Nogo receptor (NgR) = target: T2, Nogo receptor (NgR) (UniProt Q9BZR6); test: as above
T2 sequence: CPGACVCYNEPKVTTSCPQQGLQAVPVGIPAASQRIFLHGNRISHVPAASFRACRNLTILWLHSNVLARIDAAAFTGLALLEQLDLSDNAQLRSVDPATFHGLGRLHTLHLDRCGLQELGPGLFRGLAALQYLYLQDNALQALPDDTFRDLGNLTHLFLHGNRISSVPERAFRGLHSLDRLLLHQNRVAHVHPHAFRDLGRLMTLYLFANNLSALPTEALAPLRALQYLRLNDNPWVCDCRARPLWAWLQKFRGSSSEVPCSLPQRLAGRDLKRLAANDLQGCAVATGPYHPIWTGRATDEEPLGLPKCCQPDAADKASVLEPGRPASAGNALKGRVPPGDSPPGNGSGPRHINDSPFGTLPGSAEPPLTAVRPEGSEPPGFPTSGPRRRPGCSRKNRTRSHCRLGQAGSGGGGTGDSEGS

Q: Which results are given for “human CBLN4 (M1-L201) with a C-terminal Fc tag (from UniProt Q9NTU7 28-201) (Fc fusion)”?
A: binding [1]: binds; binding [2]: binds; binding [3]: binds

Q: “full length CBLN4 C-terminal His (from UniProt Q9NTU7 28-201) (ligand)” was tested. Which binding [4] did it give?
A: no binding (tested: 10 µg/ml)

Q: What does the source list for “Full-length N-terminally HA-tagged CBLN1 (from UniProt P23435 22-193)”?
A: binding [5]: no binding (tested: 10 µg/ml); binding [4]: no binding (tested: 10 µg/ml)

Q: Which binding [5] does the source give for “full length CBLN3-Fc (from UniProt Q6UW01 33-205) (Fc fusion)” here?
A: no binding (tested: 10 µg/ml)

Q: What about the binding [4] of the same substance?
A: no binding (tested: 10 µg/ml)

Q: “UNC5C-Fc (from UniProt O95185 41-380) (Fc fusion)” was tested. Which binding [3] did it give?
A: no binding (tested: 10 µg/ml)

Q: What does the source list for “Full-length N-terminally HA-tagged CBLN2 (from UniProt Q8IUK8 52-224)”?
A: binding [5]: no binding (tested: 10 µg/ml); binding [4]: no binding (tested: 10 µg/ml)

Q: How did the binding [6] turn out when “CBLN4-AP (from UniProt Q9NTU7 28-201) (ligand)” was run?
A: binds

Q: And the binding (Nogo receptor (NgR))?
A: no binding (tested: 20 nM)
